The entries are a selection whose mix differs from that of the whole data set. For some of these results: At the low end of the ranking, values are background and their order means little. The list shows a part of the results. For some of these results: Construct or isoform of the protein are uncertain.
Tests used:
Test in all cases: universal protein binding microarray (PBM)
Settings in all cases: transcription factors of Arabidopsis thaliana; high values mean tight binding; most listed sequences are background and not binding sites; double strand, one strand shown
GST-ANAC092(1-176) = target: T1, GST-ANAC092(1-176) (UniProt Q9FKA0)
T1 sequence: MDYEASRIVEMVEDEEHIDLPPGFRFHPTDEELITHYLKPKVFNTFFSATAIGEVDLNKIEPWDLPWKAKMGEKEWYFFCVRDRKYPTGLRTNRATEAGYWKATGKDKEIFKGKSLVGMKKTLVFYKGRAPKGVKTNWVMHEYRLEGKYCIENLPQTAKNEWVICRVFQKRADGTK

GST-NTL6(1-168) = GST-NTL6(1-168) (UniProt Q9SCK6)
GST-ANAC019 NAC domain = target: T2, GST-ANAC019 NAC domain (UniProt Q9C932)
T2 sequence: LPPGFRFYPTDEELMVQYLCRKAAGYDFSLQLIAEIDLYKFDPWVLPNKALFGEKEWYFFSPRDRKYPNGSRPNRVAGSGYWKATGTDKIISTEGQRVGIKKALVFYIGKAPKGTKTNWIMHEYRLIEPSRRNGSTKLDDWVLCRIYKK

[1] = target: T3, GST-ANAC092(1-285) full length (UniProt Q9FKA0)
T3 sequence: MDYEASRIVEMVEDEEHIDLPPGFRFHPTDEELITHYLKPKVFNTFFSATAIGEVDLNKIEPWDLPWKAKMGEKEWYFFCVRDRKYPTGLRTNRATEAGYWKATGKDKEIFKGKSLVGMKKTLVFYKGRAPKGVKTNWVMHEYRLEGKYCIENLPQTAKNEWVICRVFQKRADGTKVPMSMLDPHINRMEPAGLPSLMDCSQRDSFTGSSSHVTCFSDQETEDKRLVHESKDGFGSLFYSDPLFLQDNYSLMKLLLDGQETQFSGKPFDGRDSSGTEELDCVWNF

GST-NAP(1-166) = target: T4, GST-NAP(1-166) (UniProt O49255)
T4 sequence: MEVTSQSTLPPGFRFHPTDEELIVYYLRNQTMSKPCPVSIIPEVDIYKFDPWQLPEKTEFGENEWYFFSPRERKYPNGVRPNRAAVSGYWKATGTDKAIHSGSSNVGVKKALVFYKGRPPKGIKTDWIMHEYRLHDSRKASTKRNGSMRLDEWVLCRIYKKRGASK

GST-NTL8 NAC domain = target: T5, GST-NTL8 NAC domain (UniProt Q9XIN7)
T5 sequence: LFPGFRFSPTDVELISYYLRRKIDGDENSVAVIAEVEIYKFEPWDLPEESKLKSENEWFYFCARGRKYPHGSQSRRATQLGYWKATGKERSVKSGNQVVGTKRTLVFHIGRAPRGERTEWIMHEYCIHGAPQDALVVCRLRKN

GST-VND3 NAC domain = target: T6, GST-VND3 NAC domain (UniProt Q9FH59)
T6 sequence: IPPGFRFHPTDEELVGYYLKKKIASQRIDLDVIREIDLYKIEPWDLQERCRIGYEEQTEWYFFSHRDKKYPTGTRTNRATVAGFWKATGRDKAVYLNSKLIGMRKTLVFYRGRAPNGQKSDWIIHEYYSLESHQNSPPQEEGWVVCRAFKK

[2] = target: T7, GST-VOZ2 (Arabidopsis thaliana) (UniProt Q9SLB9)
T7 sequence: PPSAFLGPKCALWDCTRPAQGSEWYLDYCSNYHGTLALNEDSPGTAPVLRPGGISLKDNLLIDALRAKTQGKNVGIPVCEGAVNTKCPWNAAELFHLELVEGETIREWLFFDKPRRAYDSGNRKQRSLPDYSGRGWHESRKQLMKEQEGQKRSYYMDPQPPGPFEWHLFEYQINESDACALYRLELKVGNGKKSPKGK

GST-WRKY1(266-371) = GST-WRKY1(266-371) (UniProt Q9SI37)
GST-ATAF1 NAC domain = target: T8, GST-ATAF1 NAC domain (UniProt Q39013)
T8 sequence: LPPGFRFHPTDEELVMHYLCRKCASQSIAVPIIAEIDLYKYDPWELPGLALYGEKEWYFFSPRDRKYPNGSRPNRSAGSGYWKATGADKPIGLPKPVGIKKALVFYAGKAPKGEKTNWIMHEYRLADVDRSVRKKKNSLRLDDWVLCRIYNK

GST-ANAC055(1-171) = target: T9, GST-ANAC055(1-171) (UniProt Q9LDY8)
T9 sequence: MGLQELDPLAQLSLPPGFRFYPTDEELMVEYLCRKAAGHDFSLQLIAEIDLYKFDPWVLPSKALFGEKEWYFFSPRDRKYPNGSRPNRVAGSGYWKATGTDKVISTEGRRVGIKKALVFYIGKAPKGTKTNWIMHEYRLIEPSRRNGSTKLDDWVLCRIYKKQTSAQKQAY

GST-NST2(1-184) = target: T10, GST-NST2(1-184) (UniProt Q9M274)
T10 sequence: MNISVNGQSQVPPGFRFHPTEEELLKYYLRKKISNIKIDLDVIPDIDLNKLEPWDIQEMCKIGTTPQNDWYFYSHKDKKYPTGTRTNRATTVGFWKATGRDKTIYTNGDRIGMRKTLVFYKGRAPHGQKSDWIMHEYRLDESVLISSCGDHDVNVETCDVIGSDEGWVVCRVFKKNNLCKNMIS

GST-VND7 NAC domain = target: T11, GST-VND7 NAC domain (UniProt Q9C8W9)
T11 sequence: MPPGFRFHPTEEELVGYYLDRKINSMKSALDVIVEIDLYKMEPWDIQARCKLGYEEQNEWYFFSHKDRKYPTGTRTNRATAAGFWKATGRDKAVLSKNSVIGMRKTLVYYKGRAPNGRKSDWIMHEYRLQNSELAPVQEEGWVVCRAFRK

Sequence of UniProt Q9SI37 (Q9SI37 266-371): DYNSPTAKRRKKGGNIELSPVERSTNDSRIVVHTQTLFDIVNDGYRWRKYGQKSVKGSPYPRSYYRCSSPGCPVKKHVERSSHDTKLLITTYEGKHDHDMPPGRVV

Sequence	binding signal (GST-ANAC092(1-176))	binding signal (GST-NTL6(1-168))	binding signal (GST-ANAC019 NAC domain)	binding signal [1]	binding signal (GST-NAP(1-166))	binding signal (GST-NTL8 NAC domain)	binding signal (GST-VND3 NAC domain)	binding signal [2]	binding signal (GST-WRKY1(266-371))	binding signal (GST-ATAF1 NAC domain)	binding signal (GST-ANAC055(1-171))	binding signal (GST-NST2(1-184))	binding signal (GST-VND7 NAC domain)
GTACGCGA	0.245 E-score	-0.0431 E-score	0.0104 E-score	0.4 E-score	0.188 E-score	-0.0538 E-score	0.11 E-score	0.154 E-score	-0.0135 E-score				
ACAAGTAA		0.25 E-score	0.125 E-score	0.439 E-score	0.0135 E-score	-0.071 E-score	0.249 E-score	0.0378 E-score	-0.0293 E-score	0.238 E-score			
CCCTCCCC					-0.0307 E-score		-0.0225 E-score	0.399 E-score			-0.0139 E-score	0.169 E-score	0.198 E-score
ACGTTACA	0.354 E-score	-0.121 E-score	0.0262 E-score			-0.13 E-score	0.217 E-score	0.021 E-score	-0.181 E-score		0.157 E-score		
TAAAGCAA	0.138 E-score	0.134 E-score	0.006 E-score		-0.0877 E-score		0.135 E-score	0.0227 E-score	-0.00956 E-score	0.0247 E-score	-4e-05 E-score		
AAAGGAAA	0.196 E-score	0.284 E-score	0.105 E-score		0.015 E-score	0.457 E-score	0.166 E-score	0.0817 E-score	0.00415 E-score				
AACGTAAA			0.175 E-score			-0.0122 E-score	0.252 E-score	0.0719 E-score		0.298 E-score			0.248 E-score
GAGGGTAA	0.0757 E-score		0.0157 E-score		0.0116 E-score		-0.0215 E-score	0.221 E-score	-0.111 E-score				
CGAAGCAA	0.243 E-score	0.325 E-score	0.0274 E-score	0.271 E-score	-0.00226 E-score		0.0366 E-score	0.0109 E-score	-0.031 E-score	0.00551 E-score	0.0101 E-score		
ATTGCTTA		0.423 E-score	-0.0471 E-score		-0.0873 E-score		0.16 E-score	-0.0816 E-score	-0.128 E-score	0.00324 E-score	0.00293 E-score		
GGAAGCAA	0.318 E-score	0.36 E-score					0.118 E-score	0.0594 E-score	-0.0599 E-score		0.136 E-score		
AAGGTCAA			-0.106 E-score		0.0384 E-score		0.101 E-score	0.126 E-score					-0.00418 E-score
CTAGCGTA		-0.11 E-score	0.0321 E-score	0.398 E-score		-0.0396 E-score	0.0384 E-score	0.0593 E-score	-0.0942 E-score	0.0437 E-score			
AGCTTTCC					-0.0579 E-score	0.434 E-score	0.0376 E-score	0.0254 E-score	-0.183 E-score	-0.0217 E-score		0.0462 E-score	
CCCCACCC		0.274 E-score	0.177 E-score		-0.0117 E-score	0.277 E-score	-0.0158 E-score	0.428 E-score	-0.123 E-score				
CTACACGC		-0.0778 E-score				0.00388 E-score	0.147 E-score	0.0782 E-score	-0.114 E-score		0.0947 E-score		
ACGCAACT		0.105 E-score				0.0824 E-score	0.462 E-score	0.237 E-score	-0.0613 E-score			0.39 E-score	
